In series [1] the target is T1, PD-L2 binding to human PD-1 (Homo sapiens, UniProt Q15116).
T1 construct: expressed in transfected cells; host or cells: 300.19 cells
The series is described as follows: Blocking of PD-L2 binding on PD-1-expressing 300.19 cells. Format: cell-based.

The target of series [2] is T2, human PD-1-expressing 300.19 cells (Homo sapiens, UniProt Q15116).
T2 construct: expressed in transfected cells; host or cells: 300.19 cells
The series is described as follows: FACS binding on human PD-1-expressing 300.19 cells. The following applies: FACS analysis; compared to a human IgG4 isotype control. As to the method:
The binding of the same humanized anti-PD-1 antibody on human PD-1-expressing 300.19 cells was measured using FACS analysis.

The target of series [3] is T3, PD-L1 binding to human PD-1 (Homo sapiens, UniProt Q15116).
T3 construct: expressed in transfected cells; host or cells: 300.19 cells
The series is described as follows: Blocking of PD-L1 binding on PD-1-expressing 300.19 cells. The class given is cell-based. On the procedure:
The blocking capacity of the mAbs was evaluated in a competition binding assay using a constant concentration of PD-L1-huIgG1 Fc fusion protein or PD-L2-huIgG1 Fc fusion protein, serial dilutions of the mAbs to be tested, and PD-1-expressing 300.19 cells.
Incubation was at 4° C. for 30 min. Bound ligand fusion proteins were detected with PE-conjugated F(ab′)2 fragment of goat anti-human IgG which doesn't recognize IgG4 mAbs (Southern Biotech 2043-09), and flow cytometry.

For another series, the target named is T4, mouse PD-1 (Mus musculus, UniProt Q02242).
T4 sequence (Q02242 25-288): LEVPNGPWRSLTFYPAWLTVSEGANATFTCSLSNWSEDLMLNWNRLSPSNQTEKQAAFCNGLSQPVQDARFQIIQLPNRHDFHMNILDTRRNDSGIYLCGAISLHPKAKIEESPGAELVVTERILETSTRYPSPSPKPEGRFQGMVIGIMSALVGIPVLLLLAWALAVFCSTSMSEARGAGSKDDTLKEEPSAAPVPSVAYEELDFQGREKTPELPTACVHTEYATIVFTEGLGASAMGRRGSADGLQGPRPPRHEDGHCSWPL
The series is described as follows: Cross-reactivity with mouse PD-1. The class given is binding.

A further series deals with cynomolgus PD-1 protein. The series is described as follows: Biacore binding to cynomolgus PD-1. For orientation: Surface plasmon resonance follows binding to a sensor surface in real time, without labels.
For series [4], the system named is cynomolgus PD-1-expressing 300.19 cells. The series is described as follows: Binding to cynomolgus PD-1-expressing 300.19 cells.
The target of a further series is human PD-1 protein (Homo sapiens, UniProt Q15116). The series is described as follows: Biacore binding on human PD-1 protein. The following applies: Biacore method; for Kd: rate constant. On the procedure: The binding of an exemplary humanized anti-PD-1 antibodies including Clone B and Clone E as shown in Table 1 on human PD-1 protein was measured using Biacore method.

Series [5] can be described thus: Iso-electric focussing (Novex IEF) analysis. The class given is physicochemical. The following applies: estimated from staining positions against the IEF 3-10 marker. As to the method: Non-reduced samples of Protein A purified antibody were electrophoresed as described below.
5 μg of Protein A purified samples were electrophoresed on a 1.0 mm Novex pH 3-10 gradient gel (Invitrogen, EC66552BOX) using manufacturers recommended running conditions. A 10 μl aliquot of IEF pH 3-10 markers (Invitrogen, 39212-01) was included on the gel. Once electrophoresed, gels were fixed with 10% TCA solution for 30 min and then stained with InstantBlue (TripleRed, ISB01L) over night at room temperature. Images of the stained gels were analysed on a BioSpectrum Imaging System (UVP).

Numbering of substitutions follows the chain as printed.

human PD-1 protein, sequence (Q15116 25-288): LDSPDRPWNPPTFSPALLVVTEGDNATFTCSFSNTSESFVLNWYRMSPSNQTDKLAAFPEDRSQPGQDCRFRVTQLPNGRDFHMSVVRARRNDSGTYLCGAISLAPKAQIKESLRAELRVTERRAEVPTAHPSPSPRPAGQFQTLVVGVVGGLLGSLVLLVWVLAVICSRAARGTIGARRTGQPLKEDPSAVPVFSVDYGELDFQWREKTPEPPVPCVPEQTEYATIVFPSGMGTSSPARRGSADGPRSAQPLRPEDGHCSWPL
T1 sequence (Q15116 25-288): as above
T3 sequence (Q15116 25-288): as above
T2 sequence (Q15116 25-288): as above

B1: exemplary humanized anti-PD-1 antibody: exemplary humanized anti-PD-1 antibody (human IgG4) of Example 1; clone not specified (antibody)
heavy: EVQLVQSGAEVKKPGESLRISCKGSGYTFTTYWMHWVRQATGQGLEWMGNIYPGTGGSNFDEKFKNRVTITADKSTSTAYMELSSLRSEDTAVYYCTRWTTGTGAYWGQGTTVTVSSASTKGPSVFPLAPCSRSTSESTAALGCLVKDYFPEPVTVSWNSGALTSGVHTFPAVLQSSGLYSLSSVVTVPSSSLGTKTYTCNVDHKPSNTKVDKRV[human IgG4 Fc with S228P (EU numbers) not spelt out]
light: EIVLTQSPATLSLSPGERATLSCKSSQSLLDSGNQKNFLTWYQQKPGQAPRLLIYWASTRESGVPSRFSGSGSGTDFTFTISSLEAEDAATYYCQNDYSYPYTFGQGTKVEIKRTVAAPSVFIFPPSDEQLKSGTASVVCLLNNFYPREAKVQWKVDNALQSGNSQESVTEQDSKDSTYSLSSTLTLSKADYEKHKVYACEVTHQGLSSPVTKSFNRGEC
For the molecule B1, the “blocking of PD-L2 binding” value in series [1] is on record as “blocked”. The “binding to human PD-1” value in series [2] is “high affinity”. Further, the “blocking of PD-L1 binding” value in series [3] is on record as “blocked”. Moreover, in the series with mouse PD-1, the “cross-reactivity with mouse PD-1” value is recorded as “not cross-reactive”. The “affinity to cynomolgus PD-1 protein” value in the series on cynomolgus PD-1 protein is on record as “high affinity”. Moreover, in series [4], the “affinity to cynomolgus PD-1-expressing 300.19 cells” value is given as “high affinity”. In the series with human PD-1 protein, the Ka is 278000 M⁻¹ s⁻¹ and the Kd was found to be 0.000213 s⁻¹.

B2: Clone B: humanized anti-PD-1 antibody BAP049 clone; sequences in Table 1 (antibody)
heavy: B1 heavy
light: B1 light with Q48K, R51K, E85Q, A86P, A89I
For B2, in series [5], the “Basic charge isoforms (pI)” value was 7.8 and the “pI of predominant charge isoform” value was 7.75. In the series with human PD-1 protein, this molecule yielded a Ka of 278000 M⁻¹ s⁻¹ and a Kd of 0.000213 s⁻¹.

The values above are taken from patent US20180177872A1, “Combination of PD-1 antagonist with an EGFR inhibitor” (priority 2015, published 2018).
